Source: PubChem BioAssay AID504832 (National Center for Advancing Translational Sciences (NCATS), 2011)
In all, about 310,000 compounds went through this assay and about 18,000 (5.8%) were called active. The inconclusive results got no clear call from the source; some entries with a clear call stand among them for comparison. Calls follow the shape of the dose curve; as a rule, active = well fitted inhibition curve with a large enough effect; inconclusive = small, poorly fitted or top-dose-only effect, or another doubt; inactive = no such curve, though single readings can be large or run the other way. No potency is given beside an inconclusive call; the fits are too rough.

Assay: Primary qHTS for delayed death inhibitors of the malarial parasite plastid, 48 hour incubation
Conditions: P. falciparum luciferase growth in erythrocytes; series mostly up to 28.7 µM
Method in brief: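 Erythrocytes infected with P. falciparum carrying an integrated firefly luciferase reporter (2% hematocrit, 0.1% parasitemia final) were exposed to compounds in RPMI 1640 with 0.5% Albumax at 37 C, 5% CO2. Growth inhibition was scored as reduced luminescence.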
Potency is read from the fitted curve at half-maximal effect; tags tell the direction and shape of the fitted curve.

| Compound | Potency |
| --- | --- |
| Cn1cccc1C(=O)OCC(=O)Nc1ccc2c(c1)OCO2 | inactive |
| O[C@H]1[C@H]2[C@H](O)CCCN2C[C@H]1O | inactive |
| Cc1noc(C)c1-c1nc(CS(=O)(=O)c2ccccc2)no1 | inconclusive [inhibitor, single point] |
| CNC(=O)NC(=O)C(C)OC(=O)c1oc2ccccc2c1CSc1ccc(Cl)cc1 (configuration not stated) | inconclusive [inhibitor, single point] |
| O=S(=O)(c1ccc(Cl)cc1)N1CCCC1c1cccnc1 (configuration not stated) | inconclusive [inhibitor, partial curve, poor fit] |
| COc1ccc(NC(=O)CCCn2c(=O)c3sccc3n(Cc3ccccc3)c2=O)cc1 | inconclusive [inhibitor, single point] |
| CC(C)c1ccc(S(=O)(=O)N2CCN(C(=O)CN3C(=O)NC(C)(c4ccccc4)C3=O)CC2)cc1 (configuration not stated) | inconclusive [inhibitor, single point] |
| C[C@@H](C(=O)Nc1ccc2ccccc2c1)[C@H]1C[C@]1(C)[C@H](NS(=O)(=O)c1ccc(-c2ccccc2)cc1)c1ccccc1 | active: 11.7 µM |
| CC1CCN(c2nc3nonc3nc2Nc2ccc(F)cc2)CC1 | inconclusive [inhibitor, single point] |
| O=C(Nc1cc(Cl)cc(Cl)c1)c1coc(=O)c(Br)c1 | inactive |
| Cc1cc(C)c2nc(N(CCCN(C)C)C(=O)c3ccc4c(c3)OCCO4)sc2c1 | active: 10.4 µM |
| CN(c1ccccc1C(=O)N1CCN(c2ccccc2F)CC1)S(=O)(=O)c1ccccc1 | inactive |
| O=C1c2ccccc2C(=O)c2cc(S(=O)(=O)Nc3ccccc3)ccc21 | inactive |
| COc1ccc(S(=O)(=O)N2CN(Cc3ccco3)c3nc4ccccc4nc32)cc1 | active: 11.7 µM |
| O=C(Nc1ccccc1O)c1cc2cc(Br)ccc2oc1=O | inactive |
| COc1ccc(CNc2ncc(-c3ccc(Br)cc3)n2C)cc1OC | inconclusive [inhibitor, partial curve, poor fit] |
| OCC[C@H]1C[C@H](O)[C@@H](O)[C@@]2(CCc3ccccc3CO2)O1 | inconclusive [inhibitor, single point] |
| Cc1[nH]c2ccccc2c1/C=N/NC(=O)c1cc(-c2ccncc2)nc2ccccc12 | inconclusive [inhibitor, partial curve] |
| O=C(C1CCN(C2CC(=O)N(Cc3ccccc3)C2=O)CC1)N1CCCCCC1 (configuration not stated) | inactive |
| O=C(Nc1c(C(=O)O)[nH]c2ccccc12)NC1CCCCC1 | inconclusive [inhibitor, single point] |
| COc1ccc(CCN2CC(C(=O)NCc3cc(C)on3)CCC2=O)cc1 (configuration not stated) | inconclusive [inhibitor, full curve, poor fit] |
| O=C(c1cccc(S(=O)(=O)NCCOc2ccccc2)c1)N1CCN(c2ncccn2)CC1 | inconclusive [inhibitor, single point] |
| CCCCn1c(N)c(N(C)C(=O)c2ccc(Br)o2)c(=O)[nH]c1=O | inactive |
| Cn1c(C(=O)N2CCN(Cc3ccc4c(c3)OCO4)CC2)cc2sccc21 | inconclusive [inhibitor, partial curve, poor fit] |

| Compound | Potency |
| --- | --- |
| O=C(CCc1ccccn1)N1CCCC(CNS(=O)(=O)c2cccs2)C1 (configuration not stated) | inactive |
| COc1ccc(NC(=O)Cn2nnc(C(=O)NCc3ccc4c(c3)OCO4)c2N)cc1 | inactive |
| O=C1NCCN1CCNS(=O)(=O)c1ccc2ccccc2c1 | inactive |
| COc1cccc(OC)c1NC(=O)C1CCCN1C(=O)Nc1ccccc1Cl (configuration not stated) | inactive |
| S=C1NNC2(CC3CC2C2CCCC32)NN1 (configuration not stated) | inactive |
| CCCc1cc(-c2n[nH]c(C)c2-c2ccc(C(=O)OCC)o2)c(O)cc1O | inconclusive [inhibitor, single point] |
| COc1ccc(/C=N/Nc2cc(N3CCCC3)nc(N3CCCC3)n2)cc1 | inconclusive [inhibitor, full curve] |
| NC(CCC(=O)N[C@@H](CS)C(=O)NCC(=O)O)C(=O)O (some centres not stated) | active: 2.13 µM |
| CCN(CC)CCCn1c2c(c(SCC(=O)Nc3nc4ccccc4s3)nc1=O)CCC2 | inconclusive [inhibitor, single point] |
| Cc1ccc(NC(=O)CN(c2ccc(Cl)cc2)S(=O)(=O)c2cc([N+](=O)[O-])ccc2Cl)cc1 | inconclusive [inhibitor, single point] |
| COc1ccc2c(c1)CCc1cn3nc(C)cc3nc1-2 | inconclusive [inhibitor, partial curve, poor fit] |
| Cc1ccnc2nc(C(=O)OCC(=O)N3CC(C)CC(C)C3)nn12 (configuration not stated) | inactive |
| CCC(C)(C)C1CCc2[nH]nc(C(=O)NCc3ccc(OC)cc3)c2C1 (configuration not stated) | inconclusive [inhibitor, partial curve, poor fit] |
| COc1ccc(-c2nnc3n(CCc4ccccc4)c(=O)c4ccccc4n23)c(OC)c1 | active: 13.1 µM |
| COc1ccc(NC(=O)c2cc3n(n2)C(C(F)(F)F)CC(c2ccc4c(c2)OCO4)N3)cc1OC (configuration not stated) | inactive |
| COc1ccc(-n2cnc3cc(NCc4ccccn4)ccc32)cc1 | inconclusive [inhibitor, single point] |
| S=C(NCCc1ccccc1)NC1CCCCCC1 | inactive |
| CCOC(=O)c1cnc2c(OC)cccc2c1N1CCN(c2ccc(OC)cc2)CC1 | active: 11.7 µM |
| CCOCCCNC(=O)C(c1ccc(C)cc1)N(Cc1ccc2c(c1)OCO2)C(=O)CNC(C)=O (configuration not stated) | inconclusive [inhibitor, single point] |
| Cc1ccc(C2=Nc3cccnc3C(c3ccccc3)=NN2)cc1 | inactive |
| COc1ccc(C(=O)CSc2nnc(NC(=O)C3CC(=O)N(c4ccccc4)C3)s2)cc1 (configuration not stated) | inactive |
| COc1ccc(C2=CSC3=NCCN23)cc1OC | inconclusive [inhibitor, full curve, poor fit] |
| C=CCn1c(=N)n(CC(=O)c2cccc([N+](=O)[O-])c2)c2ccccc21 | inconclusive [inhibitor, single point] |
